Reference: PubChem BioAssay AID1345082 (National Center for Advancing Translational Sciences (NCATS), 2018)
“And” between values parts separate entries of the source, which are not always exact repeats. Identical values can stand only once. Out of some 94,000 compounds screened, about 4,000 (4.3%) were called active. The shares of active, inactive and inconclusive entries below differ from those in the screen. Calls follow the shape of the dose curve; as a rule, active = well fitted inhibition curve with a large enough effect; inconclusive = small, poorly fitted or top-dose-only effect; inactive = no such curve, though single readings can be large or run the other way. A potency beside an inconclusive call is a rough fit, not a confirmed value.

Assay: Cytotoxic Profiling in NIH 3T3 Cell Line of Diverse Libraries Using Quantitative High-Throughput Screening; also: nearly all actives have a fitted effect of over 55% in size
Settings: NIH 3T3 viability, CellTiter-Glo ATP luminescence, 48-72 h; activity change, negative = cytotoxicity: at 96.7 µM (top of the series); series mostly up to 96.7 µM
Summary of the method: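 First NIH 3T3 cells are plated at 400 cells/well; next compound is pinned in; then plates incubate 48 or 72 hr at 37 °C; finally CellTiter-Glo is added and luminescence read after 10 min.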
% is scaled to controls: 0 for no effect and ±100 for the full control effect; potency is read from the fitted curve at half-maximal effect; tags tell the direction and shape of the fitted curve.

| SMILES | Potency | activity change, negative = cytotoxicity | outcome |
| --- | --- | --- | --- |
| COc1ccccc1OCc1nc2c(n1Cc1ccccc1)C(=O)N(CC1CC1)CCN2 | inconclusive: 89.1 µM [inhibitor, partial curve] | – | – |
| CC(C)(C)c1ccc(-c2cc(C[C@H]3CNCC[C@H]3CC(=O)Nc3ccccc3)no2)cc1 | inconclusive: 126 µM [inhibitor, single point] | – | – |
| O=C(c1cncc(Br)c1)N1CCC(Cc2nc(C3CCOCC3)no2)CC1 | inconclusive: 50.1 µM [inhibitor, partial curve, poor fit] | – | – |
| Cc1ccsc1CN1CCC(C2CCN(S(C)(=O)=O)CC2)C1 (stereo not drawn) | – | inactive: 1.94% | – |
| CN(CCn1ccnc1)c1ccc(-c2nc(-c3cccc(Cl)c3)no2)cn1 | inconclusive: 44.7 µM [inhibitor, partial curve, poor fit] | – | – |
| Cc1ccc(CC(=O)N2c3ccccc3CC2c2nnc(C3CCOCC3)o2)cc1 (stereo not drawn) | inconclusive: 70.8 µM [inhibitor, single point] | – | – |
| Cc1ccc(O)c(CN2CCCC(c3nc(CC(C)C)no3)C2)c1 (stereo not drawn) | inconclusive: 56.2 µM [inhibitor, partial curve, poor fit] | – | – |
| NC(=O)c1noc2c1CN(c1cc(-c3ccccc3)nc3ccnn13)CC2 | inconclusive: 50.1 µM [inhibitor, partial curve, poor fit] | – | – |
| COc1ccccc1-c1[nH]nc2ncc(C(=O)N3CCC(c4ccccc4)CC3)nc12 | inconclusive: 100 µM [inhibitor, partial curve, poor fit] | – | – |
| COc1ccc(-c2cc(N3CCOCC3=O)c3cncn3c2)cc1OC | inconclusive: 89.1 µM [inhibitor, partial curve, poor fit] | – | – |
| COc1ccccc1CCNC(=O)C1CC(c2ccc(F)c(C)c2)CN(C(=O)C2CC2)C1 (stereo not drawn) | active: 39.8 µM | – | – |
| CC(C)CN(CC(C)C)C[C@H]1O[C@H](Cc2cc(COc3ccccc3)on2)CC[C@@H]1O | active: 100 µM | – | – |
| COCCCNC(=O)c1cnc2c(c1)N(C(=O)Cc1ccc(C(C)C)cc1)CCC2 | – | inactive: -23.5% [at 138 µM] | – |
| COc1ccc(NC(=O)c2cc3c(n2C)CCN(Cc2ccc(F)cc2)C3)cc1 | inconclusive: 44.7 µM [inhibitor, partial curve, poor fit] | – | – |
| O=C(c1ccc(F)c(F)c1)N1CCN(C2CCN(CCc3ccccc3)C2=O)CC1 (stereo not drawn) | – | inactive: -8.32% | – |
| CC#CCn1cc2c3c(cccc31)[C@H](CC(C)C)N[C@H](C(=O)NCCC)C2 | active: 39.8 µM | – | – |
| CNC(=O)c1cc(C2CC2)nc2onc(C3CCN([S+](=O)([O-])c4cccs4)CC3)c12 | inconclusive: 44.7 µM [inhibitor, partial curve, poor fit] | – | – |
| O=C(Nc1ccc(=O)n2c1[C@@H]1C[C@@H](CN(C(=O)Nc3ccc(F)cc3)C1)C2)c1ccc2c(c1)OCO2 | inconclusive: 70.8 µM [inhibitor, single point] | – | – |
| COc1cccc(CNC(=O)c2ccc3nnc(CC4CC4)n3c2)c1 | inconclusive: 70.8 µM [inhibitor, single point] | – | – |
| COc1ccc(-c2ccc(C(=O)NCc3ccc(C(F)(F)F)cc3)cc2)nn1 | inactive | – | – |
| C[S+](=O)([O-])N1Cc2ccccc2CC2(CCN(CC3CCCC3)C2)C1 (stereo not drawn) | – | – | inactive |

| SMILES | Potency | activity change, negative = cytotoxicity | outcome |
| --- | --- | --- | --- |
| COc1ccc(C(=O)NC2CCCN(c3ccc4nnc(-c5ccccc5)n4n3)C2)cc1 (stereo not drawn) | inconclusive: 44.7 µM [inhibitor, partial curve, poor fit] | – | – |
| N#Cc1ccc(C(=O)N2CCN(c3cc(-c4cccs4)[nH]n3)CC2)cc1 | inconclusive: 39.8 µM [inhibitor, partial curve] | – | – |
| CC1(C)[C@H]2CC[C@@H](CN[S+](=O)([O-])c3ccccc3)[C@@H]1C2 | inconclusive: 89.1 µM [inhibitor, partial curve, poor fit] | – | – |
| Cc1cccc(CN2CCc3ncc(C(=O)NCCC(C)C)n3CC2)c1 | inconclusive: 63.1 µM [inhibitor, partial curve, poor fit] | – | – |
| CC1=NOC2(CCN(C(=O)c3ccc(C(F)(F)F)cc3)CC2)C1 | inconclusive: 112 µM [inhibitor, single point] | – | – |
| CN(Cc1cccc(-n2cccn2)c1)C(=O)C1COc2ccccc2C1 (stereo not drawn) | inconclusive: 79.4 µM [inhibitor, single point] | – | – |
| O=C1N(CCCCOc2ccccc2)c2ccccc2NC12CCNCC2 | inconclusive: 20 µM [inhibitor, full curve, poor fit] | – | – |
| Cc1ccc(C(=O)N2CCc3nc(-c4ccc(Cl)cc4)nc(-c4ccccc4)c3C2)cc1 | inconclusive: 28.2 µM [inhibitor, full curve] and inconclusive: 70.8 µM [inhibitor, single point] | – | – |
| O=C(Cc1ccc2c(c1)OCO2)N1CCc2[nH]nc(-c3ccccc3F)c2C1 | inconclusive: 35.5 µM [inhibitor, partial curve, poor fit] | – | – |
| CNC(=O)[C@H]1C[C@H](Oc2ccccc2)CN1C(=O)c1ccccc1 | inconclusive: 79.4 µM [inhibitor, partial curve, poor fit] | – | – |
| COc1cc(CNC(=O)C23CCC=C2N(C2CCCC2)C(=O)CC3)cc(OC)c1 (stereo not drawn) | – | inactive: -26.8% | – |
| CC(C)(C)c1ccc(-c2cc(C[C@H]3CNCC[C@H]3CC(=O)N3CCC(n4c(=O)[nH]c5ccccc54)CC3)no2)cc1 | active: 25.1 µM | – | – |
| COc1ccc(CCc2nnc3n2CCCC3)cc1 | – | inactive: -11% | – |
| Cc1ccc(Nc2ccnc(N3CCCC3C(=O)NCc3cccc(Cl)c3)n2)cc1 (stereo not drawn) | inconclusive: 50.1 µM [inhibitor, partial curve, poor fit] | – | – |
| Cc1ccc(C(=O)NC2CCN(c3ccc(F)cc3)C2=O)cc1C (stereo not drawn) | – | inactive: 2.55% | – |
| O=C(CCC[C@H]1NC[C@@H]2C[C@H]1CN(Cc1ccccc1)C2)NCc1cc(F)cc(F)c1 | inconclusive: 70.8 µM [inhibitor, single point] | – | – |
| CCOc1ccccc1CN1CCCCC12Cc1ccccc1CNC2=O (stereo not drawn) | – | inactive: 4.66% | – |
| COc1ccccc1N1CCN(C(=O)Nc2n[nH]c(Cc3ccccc3)n2)CC1 | inconclusive: 50.1 µM [inhibitor, partial curve, poor fit] | – | – |
| Nc1ncncc1-c1noc([C@@H]2CCCN2Cc2cnc3ccccc3c2)n1 | inconclusive: 89.1 µM [inhibitor, partial curve, poor fit] | – | – |
| COc1ccc(CN2CCC[C@H]2c2nc(-c3ccc(-n4ccnc4)nc3)no2)c(OC)c1OC | inconclusive: 22.4 µM [inhibitor, full curve, poor fit] | – | – |
| CCN1C(=O)CN(C(=O)c2ccsc2)CC12CCOCC2 | – | inactive: -2.19% | – |

| SMILES | Potency | activity change, negative = cytotoxicity | outcome |
| --- | --- | --- | --- |
| CS(=O)(=O)N[C@H]1C[C@H]2C(=O)Nc3ccc(-c4ccc5c(c4)OCO5)cc3C(=O)N2C1 | inconclusive: 100 µM [inhibitor, partial curve, poor fit] | – | – |
| O=C(CC(c1ccc(Cl)cc1)c1c[nH]c2ccc([N+](=O)[O-])cc12)N1CCOCC1 (stereo not drawn) | inconclusive: 44.7 µM [inhibitor, partial curve, poor fit] | – | – |
| CCOC(=O)c1ccc(NC(=O)N2Cc3[nH]cnc3C[C@H]2c2nc(-c3cccc([N+](=O)[O-])c3)no2)cc1 | inconclusive: 11.2 µM [inhibitor, full curve, poor fit] | – | – |
| CC(C)NC(=O)N1CCC(CCOc2ccccc2F)C1 (stereo not drawn) | inconclusive: 44.7 µM [inhibitor, partial curve, poor fit] | – | – |
| OC[C@@H]1CNC[C@H]1C1CCN(Cc2cccc(Cl)c2F)CC1 | inconclusive: 56.2 µM [inhibitor, partial curve, poor fit] | – | – |
| Cc1cccc(C)c1-c1nc(C(=O)NC2CC2)n2ccccc12 | inconclusive: 50.1 µM [inhibitor, partial curve, poor fit] | – | – |
| CCC(=O)Nc1cc(-c2ccncc2)nn1-c1ccccc1 | inconclusive: 89.1 µM [inhibitor, partial curve, poor fit] | – | – |
| Cc1nc(C)c(C(=O)NCCc2ncc(C)n2C2CC2)s1 | – | inactive: -12.7% | – |
| Cc1nc(-c2ccc(F)cc2)n(CC(=O)Nc2cccc(C(F)(F)F)c2)c(=O)c1CCO | active: 22.4 µM | – | – |
| Cc1ccccc1-c1cnc2[nH]cc(CC(=O)NC(C)C)c2c1 | inconclusive: 39.8 µM [inhibitor, partial curve, poor fit] | – | – |
| Cc1ccc(-c2ccccc2CN2CCC(C(=O)NCCc3ccccc3)CC2)cc1Cl | active: 31.6 µM and active: 25.1 µM | – | – |
| CCN(C1CCOCC1)C1CN(C(=O)c2ccncc2)C1 | – | – | inactive |
| COc1ccc(Cl)cc1-c1ccc2c(c1)C(=O)N1CC[C@H](NC(=O)c3cccs3)C[C@H]1C(=O)N2 | inconclusive: 31.6 µM [inhibitor, full curve] | – | – |
| COC1CN(c2ccc(C)cc2)C12CCN(C(=O)c1cccnc1)CC2 (stereo not drawn) | – | inactive: -23.5% | – |
| CC1=C[C@@H](CNC(=O)c2ccncc2)[C@H](C(C)C)C[C@H]1CC(=O)N1CCCC1 | – | inactive: -20.9% [at 138 µM] | – |
| O=C(CN1CCOCC1)N1CCC2(CC1)CN(C1CCC1)CC2CO (stereo not drawn) | – | inactive: 3.6% | – |
| OC[C@@H]1CN(Cc2ccccc2OC(F)(F)F)C[C@H]1c1ccncc1 | inconclusive: 14.1 µM [inhibitor, partial curve, poor fit] | – | – |
| CC1(C)[C@H](Cc2cc(CN3CCN(c4ccccc4)CC3)on2)C[C@@H]1NCC1CC1 | inconclusive: 79.4 µM [inhibitor, partial curve] | – | – |
| COc1ccccc1CNC[C@H]1O[C@H](Cc2cc(CN(C)C)on2)CC[C@@H]1O | – | inactive: -18.5% [at 174 µM] | – |
| Cc1cc2[nH]cnc2c(NC(=O)CCc2cc3n(n2)CCNC3)c1C | – | – | inactive |
| COc1ccc2[nH]c3c(c2c1)CCNC31CCN(C(=O)c2cc(C)[nH]n2)CC1 | inconclusive: 39.8 µM [inhibitor, partial curve, poor fit] | – | – |
